The record followed here is PMC4336329 (PLoS ONE, 2015).

The campaign covered roughly 310,000 compounds. About 2,200 (0.71%) showed an effect of 50% or more. Effects have a minus sign here. The list shows a part of the results.

The target in the assay is human ether-à-go-go-related gene (hERG) potassium channel (human, UniProt Q12809). Put plainly: primary screen, population patch clamp on CHO cells stably expressing hERG.
Chain of human ether-à-go-go-related gene (hERG) potassium channel (Q12809 whole entry, looked up): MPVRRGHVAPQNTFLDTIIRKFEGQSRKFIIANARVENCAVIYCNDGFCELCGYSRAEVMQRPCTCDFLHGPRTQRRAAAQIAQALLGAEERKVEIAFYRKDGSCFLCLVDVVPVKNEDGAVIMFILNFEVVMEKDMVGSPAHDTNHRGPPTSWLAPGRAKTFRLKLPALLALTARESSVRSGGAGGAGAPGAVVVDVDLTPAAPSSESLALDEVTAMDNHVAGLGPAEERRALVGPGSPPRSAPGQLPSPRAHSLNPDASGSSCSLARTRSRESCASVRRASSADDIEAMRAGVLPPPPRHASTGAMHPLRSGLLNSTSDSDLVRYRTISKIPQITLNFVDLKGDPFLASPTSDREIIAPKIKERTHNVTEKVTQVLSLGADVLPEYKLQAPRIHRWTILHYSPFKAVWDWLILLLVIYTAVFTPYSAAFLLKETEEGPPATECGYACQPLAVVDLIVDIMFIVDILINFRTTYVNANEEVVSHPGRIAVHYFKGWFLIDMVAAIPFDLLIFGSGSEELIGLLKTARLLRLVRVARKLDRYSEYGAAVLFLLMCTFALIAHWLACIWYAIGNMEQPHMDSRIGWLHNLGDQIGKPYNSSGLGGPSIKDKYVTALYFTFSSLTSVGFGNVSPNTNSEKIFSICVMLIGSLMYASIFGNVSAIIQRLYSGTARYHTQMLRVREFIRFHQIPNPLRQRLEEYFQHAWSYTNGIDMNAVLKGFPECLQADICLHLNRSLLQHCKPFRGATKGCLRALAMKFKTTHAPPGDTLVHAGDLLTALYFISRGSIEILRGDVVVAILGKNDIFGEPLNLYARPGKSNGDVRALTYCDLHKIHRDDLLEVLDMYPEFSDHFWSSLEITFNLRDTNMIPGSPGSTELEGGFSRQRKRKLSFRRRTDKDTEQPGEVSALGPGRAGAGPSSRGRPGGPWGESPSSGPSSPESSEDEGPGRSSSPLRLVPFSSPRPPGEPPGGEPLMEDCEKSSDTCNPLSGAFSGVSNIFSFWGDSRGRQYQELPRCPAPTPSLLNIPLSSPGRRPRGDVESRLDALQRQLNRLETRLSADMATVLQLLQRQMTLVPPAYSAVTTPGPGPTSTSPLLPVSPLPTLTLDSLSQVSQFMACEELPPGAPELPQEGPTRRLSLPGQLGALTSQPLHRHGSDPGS
Turning to `CCOC(=O)c1nnn(-c2nc(N3CCCC3)nc(N3CCCC3)n2)c1-c1ccccc1`, the “hERG current change (%, negative = inhibition) at 1uM” value turned out to be 1.47%. With `CCC1Nc2ncnc(N3CCN(c4ccccc4)CC3)c2N(Cc2ccc(Br)cc2)C1=O.O=C(O)C(F)(F)F` (stereo not drawn), the “hERG current change (%, negative = inhibition) at 1uM” value is 8.24%.

With `COc1ccc(CN(C(=O)COc2ccc(C)c(C)c2)C2CCS(=O)(=O)C2)cc1OC` (stereo not drawn), the “hERG current change (%, negative = inhibition) at 1uM” value stood at 5.77%.

`CN(C)CCC#CC1(O)c2ccccc2-c2ccccc21`: the “hERG current change (%, negative = inhibition) at 1uM” value is given as 14.1%. The value for `CCN(CC)C(=O)c1[nH]cnc1C(=O)Nc1cccc(Cl)c1` was 12.2%. Next, `COc1ccccc1C1(O)C(=O)Nc2ccc(C)cc21` (stereo not drawn): 13.2%; `O=C(N/N=C/c1c[nH]c2ccccc12)c1cc(-c2cccc3ccccc23)n[nH]1`: 6.57%. With `C/C(CC(=O)Nc1cccc2c1CCCC2)=N\NC(=O)c1cccc2ccccc12`, the “hERG current change (%, negative = inhibition) at 1uM” value is listed as 15.2%. The value for `COC(=O)c1ccc(NC(=O)C(=O)N2CCN(C(=S)NCCc3ccccc3)CC2)cc1` was -2.93%. Next, `COc1ccc(N2CCN(C(c3cc4ccc(C)cc4[nH]c3=O)c3nnnn3C3CCCC3)CC2)cc1` (stereo not drawn): 3.09%. The value for `COC(=O)C/C=C/[C@@H](C)[C@@H](/C=N/O[C@@H](C)c1cn([C@H](CO)Cc2ccccc2)nn1)NS(=O)(=O)c1ccc(C)cc1` was 3.68%; that for `COc1ccc(CCNC(=O)c2c(-c3ccccc3Cl)noc2C)cc1` was 16.9%. With `CCOCCCNC(=O)c1c(C)c(C(=O)OCC)n(C)c1C`, the “hERG current change (%, negative = inhibition) at 1uM” value is on record as 11.5%. Next, `CC(Oc1ccc(Cl)cc1Cl)C(=O)Nc1ccc(N2CCN(C)CC2)cc1` (stereo not drawn): 0.566%; `O=C(CSc1nc2scc(-c3ccccc3)c2c(=O)[nH]1)N1CCOCC1`: 8.08%. Next, `O=C1C(Nc2ccccc2)=C/C(=N/S(=O)(=O)c2cccs2)c2ccccc21`: 10.9%; `C=CCOc1ccccc1CN1CCC(Oc2ccc(C(=O)N3CCCCC3)cc2)CC1`: -3.91%. The value for `COc1ccc(NC(=O)N2C[C@@H]3C[C@@H](C2)c2cccc(=O)n2C3)c(OC)c1` was -8.09%. As for `COc1ccc(CC(=O)Nc2ccc(N3CCN(c4ccc(OC)cc4)CC3)c(C#N)c2)cc1`, the “hERG current change (%, negative = inhibition) at 1uM” value came to 11.6%. In the case of `COCOc1cc(O)c(C(=O)/C=C/c2ccccc2)c(OCOC)c1`, the “hERG current change (%, negative = inhibition) at 1uM” value was 11.2%.

For `CC(=O)NNc1nc(-c2ccc(NC(C)=O)cc2)cs1`, the “hERG current change (%, negative = inhibition) at 1uM” value was found to be 17.9%. Next, `CC(Oc1ccccc1)c1nnc(SCC(=O)NC2CC2)n1C` (stereo not drawn): 16.1%; `S=c1[nH]nc(-c2cc(-c3ccccc3)n[nH]2)n1/N=C/C=C/c1ccco1`: 15.2%; `COc1ccc(OCCCCN(C)Cc2ccccc2)cc1.O=C(O)C(=O)O`: 6.99%.

Regarding `CCOP(=O)(c1ccccc1)C1(C#N)CCCC1` (stereo not drawn), the “hERG current change (%, negative = inhibition) at 1uM” value turned out to be 16.9%. The value for `CCn1cc(CNC(=O)C2CCC(=O)N(Cc3ccccc3F)C2)cn1` (stereo not drawn) was 15.8%. Next, `CC1=C(C(=O)Nc2cc(C(=O)NCCC(C)C)ccc2C)SCCO1`: 9.03%. For the compound `Cc1cccc(NC(=O)COC(=O)c2ccccc2-c2nc3ccccc3s2)c1C`, the “hERG current change (%, negative = inhibition) at 1uM” value was determined as 3.57%.

`CCc1ccc(NC(=O)c2sc3nc4n(c(=O)c3c2C)CCC4)cc1`: the “hERG current change (%, negative = inhibition) at 1uM” value turned out to be 6.34%. Next, `O=C(NCc1ccccc1)N1CCN(c2ccc(F)cc2)CC1`: 3.07%.

Take `CCc1ccc(/C=C2/SC(=S)N(CCCC(=O)Nc3ccccc3C(=O)O)C2=O)cc1`: the “hERG current change (%, negative = inhibition) at 1uM” value turned out to be 5.43%.

Regarding `COc1ccc(-c2oc3ccccc3c2C(=O)OCc2ccc(O)cc2)cc1`, the “hERG current change (%, negative = inhibition) at 1uM” value came out at 6.5%.

As for `c1cncc(C(c2nnnn2C2CCCCC2)N2CCN3CCCC3C2)c1` (stereo not drawn), the “hERG current change (%, negative = inhibition) at 1uM” value was determined as 14.3%. Next, `O=C(COc1cccc(C(F)(F)F)c1)Nc1ccc2[nH]ncc2c1`: 18.8%.

Take `COc1ccc(C2/C=C\CN(C(=O)NC(C)C)CC(=O)N2Cc2ccc(F)cc2)cc1` (stereo not drawn): the “hERG current change (%, negative = inhibition) at 1uM” value is 11.4%. The value for `O=C(CNC(=O)C12CC3CC(CC(C3)C1)C2)OCc1ccc(F)cc1Cl` was 7.61%; that for `COC(=O)c1[nH]c2cc(OC)ccc2c1NC(=O)CCN1CCSCC1` was 16.7%; that for `O=C(COC(=O)c1ccccc1Cl)NC(=O)NCc1ccccc1` was 9.65%. Consider `CC(C)N(CCNC(=O)C1CCN(S(=O)(=O)N2CCOCC2)CC1)Cc1ccccc1`, for which the “hERG current change (%, negative = inhibition) at 1uM” value stood at 8.89%. Next, `CCS(=O)(=O)N1CCC(C(=O)Nc2cccc(F)c2)CC1`: 7.11%. The value for `CN(CC(=O)Nc1ccc(N2CCOCC2)cc1)CC(=O)Nc1ccc(Cl)cc1[N+](=O)[O-]` was 5.96%; that for `Cc1ccc(-n2nc3c(=O)n(CC(=O)NC4CCCCC4)nc(C)c3c2C)cc1` was 17.9%. `CCc1ccccc1NC(=O)Cn1nnc(-c2cccnc2)n1`: the “hERG current change (%, negative = inhibition) at 1uM” value was found to be 6.37%. The value for `CCc1nnc(NC(=O)CSc2nnc(-c3ccccc3O)n2-c2ccc(C)cc2)s1` was 13.7%; that for `O=C(Nc1cccnc1)c1cc(-c2ccc(Cl)cc2Cl)on1` was -2.82%; that for `CN(Cc1cnccn1)C(=O)CC1C(=O)NCCN1Cc1cccc(Oc2ccccc2)c1` (stereo not drawn) was 4.94%.

Regarding `CN(C)Cc1c(O)ccc2c(-c3ccccc3)cc(=O)oc12`, the “hERG current change (%, negative = inhibition) at 1uM” value was 14.7%. The value for `COc1ccc(CNC(=O)Nc2cccc(Cl)c2)cc1` was 9.5%. The value for `Cc1ccc(CN2CCN(C(=O)CCC(=O)Nc3nnc(C(C)C)s3)CC2)c(C)c1` was 13.3%; that for `O=C(NNC(=O)C12CC3CC(CC(C3)C1)C2)c1ccccc1[N+](=O)[O-]` was 12.4%; that for `Cc1onc(-c2c(Cl)cccc2Cl)c1C(=O)ONC(=O)c1cc(C(F)(F)F)cc(C(F)(F)F)c1` was 7.84%.

Turning to `O=C(NN1C(=O)C2C3CCC(O3)C2C1=O)c1ccco1` (stereo not drawn), the “hERG current change (%, negative = inhibition) at 1uM” value came to 11.5%.

`CN(C(=O)c1ccc(N2CCCCC2)c([N+](=O)[O-])c1)C1(C)CCS(=O)(=O)C1` (stereo not drawn): the “hERG current change (%, negative = inhibition) at 1uM” value is listed as -2.8%. Next, `CN(CC(=O)Nc1ncn[nH]1)S(=O)(=O)c1ccc(Br)cc1`: 6.43%; `O=C(CNS(=O)(=O)c1ccc(Br)cc1)N1CCN(Cc2ccccc2)CC1`: -0.28%. Turning to `Cn1c(=O)cc(OCC(=O)NCCCN2CCN(c3cccc(Cl)c3)CC2)c2ccccc21`, the “hERG current change (%, negative = inhibition) at 1uM” value is -15.9%.

Take `COc1ccc(NC(=O)CN(C)C(=O)CCc2ccccc2)cc1`: the “hERG current change (%, negative = inhibition) at 1uM” value was determined as 11.2%. The value for `CC(C)C(=O)NNC(=O)CSc1nnc(-c2ccccc2)c(-c2ccccc2)n1` was 14.6%; that for `Cc1cc(C)nc(NC(=O)c2c(C(=O)O)noc2C)n1` was 2.44%.

On to `COc1ccc(-c2n[nH]c(C)c2-c2cscn2)c(O)c1`, for which the “hERG current change (%, negative = inhibition) at 1uM” value is 15%. Next, `COc1ccc(NC(=O)CN(C)C(=O)c2ccc3c(c2)S(=O)(=O)N=C2CCCCCN23)cc1`: 18.6%; `CCc1nc(N2CCOCC2)c(C#N)c2c1COC(C)(C)C2`: 11.5%; `O=c1c2cc(NC(=S)NCCCN3CCC(Cc4ccccc4)CC3)ccc2nc2n1CCCCC2`: -57.1%. Next, `COc1ccc(Cl)cc1Nc1nc(-c2sc(NC(=O)C(C)(C)C)nc2C)cs1`: 5.37%; `Cc1c(C(=O)NC2CCCCC2)oc2ccccc12`: 6.27%. Next, `CC(C)(C)OC(=O)NCCCCCc1nnc(SCC(N)=O)o1`: -1.99%; `O/N=C/c1cc(Cl)ccc1OCc1ccccc1Cl`: 16.1%. Regarding `CN(CCC#N)C(=O)COC(=O)c1ccccc1C(=O)c1ccc(Cl)c([N+](=O)[O-])c1`, the “hERG current change (%, negative = inhibition) at 1uM” value stood at 8.44%. The value for `O=C(NCC(=O)N(Cc1ccco1)C(C(=O)NC1CCCC1)c1cccnc1)c1cccs1` (stereo not drawn) was 6.15%; that for `Cc1cc(C)nc(SCc2ccc(C(=O)N/N=C/c3ccc(C(=O)O)cc3)cc2)n1` was 7.12%; that for `Cc1cc(NC(=O)COC(=O)c2ccc(NS(=O)(=O)c3ccc(C)c(C)c3)cc2)no1` was 8.14%.

For the compound `CCCCN(CC)CCCNC(=O)c1cn(C)c(=O)c2c1c1ccccc1n2C`, the “hERG current change (%, negative = inhibition) at 1uM” value was 3.96%.

Take `CC(=O)Nc1ccc(Oc2cc(C#N)c(C#N)cc2N2CCOCC2)cc1`: the “hERG current change (%, negative = inhibition) at 1uM” value turned out to be 5.03%.

Regarding `CN1CCN(CCCNC(=O)CCC(=O)N2CCOc3ccccc32)CC1`, the “hERG current change (%, negative = inhibition) at 1uM” value was determined as 8.85%. Regarding `CCCc1nnc(NC(=O)CCC(=O)N2CCN(C3c4ccccc4-c4ccccc43)CC2)s1`, the “hERG current change (%, negative = inhibition) at 1uM” value was 12.9%. The value for `COc1ccc(CNC(=O)CC2C(=O)NCCN2CC(C)(C)C)c(OC)c1` (stereo not drawn) was -0.778%. The value for `CCc1ccc(-c2ccc(C(=O)O)cc2)nc1` was 14.3%; that for `COc1ccc(OC)c(NC(=O)CCN2CC(C)OC(C)C2)c1` (stereo not drawn) was 7.64%; that for `COC(=O)/C=C1\N/C(=N\c2nc(C)cc(C)n2)N(c2ccc(Cl)cc2)C1=O` was 9.23%.

As for `CCN(CC)S(=O)(=O)c1cccc(NC(=O)CCSc2ccc(Cl)cc2)c1`, the “hERG current change (%, negative = inhibition) at 1uM” value stood at 5.18%. Next, `CC(=O)c1cc(-c2ccccc2)n(CC(=O)N2CCC(C)CC2)c1C`: 0.147%; `CC(C)CCn1c(=O)c2ccccc2n2c(CN3C(=O)NC4(CCC(C)CC4)C3=O)nnc12` (stereo not drawn): -2.47%.

Consider `O=C(Cc1cccc2ccccc12)Nc1nnc(-c2cccc([N+](=O)[O-])c2)s1`, for which the “hERG current change (%, negative = inhibition) at 1uM” value is 6.91%. The value for `COc1cc(/C=C2\NC(=S)NC2=O)ccc1OCc1cccc(C(=O)O)c1` was 6.37%.
